Assay results as given in the supplement of paper PMC8728848.
This is one part of the list.

Key:
Assay in all cases: glycan array binding signal (z-score within array); higher = stronger binding
Settings in all cases: glycan notation: IUPAC condensed, linker removed
[1] = molecular target: Gal(b1-4)GlcNAc(b1-3)Gal(b1-4)GlcNAc(b1-3)Gal(b1-4)GlcNAc(b1-3)Gal(b1-4)GlcNAc(b1-2)Man(a1-3)[Gal(b1-4)GlcNAc(b1-3)Gal(b1-4)GlcNAc(b1-3)Gal(b1-4)GlcNAc(b1-3)Gal(b1-4)GlcNAc(b1-2)Man(a1-6)]Man(b1-4)GlcNAc(b1-4)[Fuc(a1-6)]GlcNAc
In short: (§1)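 The binding signal is a Z-score computed within each array. Data were drawn from 3228 arrays in the Consortium for Functional Glycomics database, restricted to those with a known protein sequence. Scores were averaged over arrays of the same protein sequence at different concentrations or buffers, and over linkers, and negative values can be taken as non-binding.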

[2] = molecular target: Gal(b1-4)GlcNAc(b1-3)Gal(b1-4)GlcNAc(b1-3)Gal(b1-4)GlcNAc(b1-3)Gal(b1-4)GlcNAc(b1-2)[Gal(b1-4)GlcNAc(b1-3)Gal(b1-4)GlcNAc(b1-3)Gal(b1-4)GlcNAc(b1-3)Gal(b1-4)GlcNAc(b1-6)]Man(a1-6)[Gal(b1-4)GlcNAc(b1-3)Gal(b1-4)GlcNAc(b1-3)Gal(b1-4)GlcNAc(b1-3)Gal(b1-4)GlcNAc(b1-2)Man(a1-3)]Man(b1-4)GlcNAc(b1-4)[Fuc(a1-6)]GlcNAc
In short: as §1

[3] = molecular target: Gal(b1-4)GlcNAc(b1-3)Gal(b1-4)GlcNAc(b1-3)Gal(b1-4)GlcNAc(b1-3)Gal(b1-4)GlcNAc(b1-3)Gal(b1-4)GlcNAc(b1-2)Man(a1-3)[Gal(b1-4)GlcNAc(b1-3)Gal(b1-4)GlcNAc(b1-3)Gal(b1-4)GlcNAc(b1-3)Gal(b1-4)GlcNAc(b1-3)Gal(b1-4)GlcNAc(b1-2)Man(a1-6)]Man(b1-4)GlcNAc(b1-4)GlcNAc
In short: as §1

[4] = molecular target: Gal(b1-4)GlcNAc(b1-3)Gal(b1-4)GlcNAc(b1-3)Gal(b1-4)GlcNAc(b1-3)Gal(b1-4)GlcNAc(b1-3)Gal(b1-4)GlcNAc(b1-2)Man(a1-3)[Gal(b1-4)GlcNAc(b1-3)Gal(b1-4)GlcNAc(b1-3)Gal(b1-4)GlcNAc(b1-3)Gal(b1-4)GlcNAc(b1-3)Gal(b1-4)GlcNAc(b1-2)Man(a1-6)]Man(b1-4)GlcNAc(b1-4)[Fuc(a1-6)]GlcNAc
In short: as §1

[5] = molecular target: Gal(b1-4)GlcNAc(b1-3)Gal(b1-4)GlcNAc(b1-3)Gal(b1-4)GlcNAc(b1-3)Gal(b1-4)GlcNAc(b1-3)Gal(b1-4)GlcNAc(b1-2)[Gal(b1-4)GlcNAc(b1-3)Gal(b1-4)GlcNAc(b1-3)Gal(b1-4)GlcNAc(b1-3)Gal(b1-4)GlcNAc(b1-3)Gal(b1-4)GlcNAc(b1-6)]Man(a1-6)[Gal(b1-4)GlcNAc(b1-3)Gal(b1-4)GlcNAc(b1-3)Gal(b1-4)GlcNAc(b1-3)Gal(b1-4)GlcNAc(b1-3)Gal(b1-4)GlcNAc(b1-2)Man(a1-3)]Man(b1-4)GlcNAc(b1-4)[Fuc(a1-6)]GlcNAc
In short: as §1

[6] = molecular target: Gal(b1-4)GlcNAc(b1-3)Gal(b1-4)GlcNAc(b1-3)Gal(b1-4)GlcNAc(b1-3)Gal(b1-4)GlcNAc(b1-3)Gal(b1-4)GlcNAc(b1-3)Gal(b1-4)GlcNAc(b1-2)Man(a1-3)[Gal(b1-4)GlcNAc(b1-3)Gal(b1-4)GlcNAc(b1-3)Gal(b1-4)GlcNAc(b1-3)Gal(b1-4)GlcNAc(b1-3)Gal(b1-4)GlcNAc(b1-3)Gal(b1-4)GlcNAc(b1-2)Man(a1-6)]Man(b1-4)GlcNAc(b1-4)GlcNAc
In short: as §1

[7] = molecular target: Gal(b1-4)GlcNAc(b1-3)Gal(b1-4)GlcNAc(b1-3)GalNAc
In short: as §1

[8] = molecular target: Gal(b1-4)GlcNAc(b1-3)Gal(b1-4)GlcNAc(b1-3)[Gal(b1-4)GlcNAc(b1-3)Gal(b1-4)GlcNAc(b1-6)]GalNAc
In short: as §1

[9] = molecular target: Gal(b1-4)GlcNAc(b1-3)Gal(b1-4)GlcNAc(b1-6)[Gal(b1-3)]GalNAc
In short: as §1

[10] = molecular target: Gal(b1-4)GlcNAc(b1-3)Gal(b1-4)[Fuc(a1-3)]GlcNAc(b1-3)Gal(b1-4)[Fuc(a1-3)]GlcNAc
In short: as §1

[11] = molecular target: Gal(b1-4)GlcNAc(b1-3)GalNAc
In short: as §1

[12] = molecular target: Gal(b1-4)GlcNAc(b1-3)[Fuc(a1-3)GlcNAc(b1-6)]Gal(b1-4)Glc
In short: as §1

[13] = molecular target: Gal(b1-4)GlcNAc(b1-3)[Gal(b1-4)GlcNAc(b1-6)]Gal(b1-4)GlcNAc
In short: as §1

[14] = molecular target: Gal(b1-4)GlcNAc(b1-3)[GlcNAc(b1-6)]Gal(b1-4)GlcNAc
In short: as §1

[15] = molecular target: Gal(b1-4)GlcNAc(b1-6)Gal(b1-4)GlcNAc
In short: as §1

[16] = molecular target: Gal(b1-4)GlcNAc(b1-6)GalNAc
In short: as §1

[17] = molecular target: Gal(b1-4)GlcNAc(b1-6)[Gal(b1-3)]GalNAc
In short: as §1

[18] = molecular target: Gal(b1-4)GlcNAc(b1-6)[Gal(b1-4)GlcNAc(b1-3)]GalNAc
In short: as §1

[19] = molecular target: Gal(b1-4)GlcNAc6P
In short: as §1

[20] = molecular target: Gal(b1-6)Gal
In short: as §1

[21] = molecular target: Gal3S(b1-3)GalNAc
In short: as §1

[22] = molecular target: Gal3S(b1-3)GlcNAc
In short: as §1

[23] = molecular target: Gal3S(b1-3)[Fuc(a1-4)]GlcNAc
In short: as §1

B1: PX9961J-bvu-499-24-499 (Bacteroides vulgatus) (protein)
chain: LNTDPSTAVPSDDAIKNIDDAQVALNGIYRLASAHSYYGDNYLYYADCRGEDVQARINKGAGRRVSPYYFFDVTADDNFNITLVWNQPYKVIHQANSLIEKLDAGNAGNARPEEVARIKSEALAMRGLALFDLTRLFGMPYTLDNGASLGVPIEIQTTLEDHAPERNTVAQCYEQVLKDLNDALGGLTKEKHDAYMNYWSVKALLSRVYLYMNDNENALKCAEEVINDNGGIYRLFTHDEYPSVWGKDFNSESLFEFYFTMSEPSGGSGGEGAPMVYADNVKDWNNLILTKAYLDLLNEDPEDVRHVFPHLPENAVADTLPVAAKGQPKYLIKYPGKSGSVTDAVSTVNPQDNDLCILRLSEVYLNAAEAAFKIGNTEKALTYLNAIVTRANPAKSVTSADLSLERILKERRKELVGEGHAFFDYMRNGKSVDRSGGWHLTMPEDARVIAPSDPRVALPIPQTEIDANPNIVQNPR
- glycan array binding signal (z-score) [1]: -0.135
- glycan array binding signal (z-score) [2]: 0.492
- glycan array binding signal (z-score) [3]: 4.09
- glycan array binding signal (z-score) [4]: 2.67
- glycan array binding signal (z-score) [5]: 0.115
- glycan array binding signal (z-score) [6]: 0.326
- glycan array binding signal (z-score) [7]: -0.457
- glycan array binding signal (z-score) [8]: -0.032
- glycan array binding signal (z-score) [9]: -0.305
- glycan array binding signal (z-score) [10]: -0.774
- glycan array binding signal (z-score) [11]: -0.279
- glycan array binding signal (z-score) [12]: -0.409
- glycan array binding signal (z-score) [13]: -0.048
- glycan array binding signal (z-score) [14]: -0.457
- glycan array binding signal (z-score) [15]: -0.357
- glycan array binding signal (z-score) [16]: -0.362
- glycan array binding signal (z-score) [17]: -0.563
- glycan array binding signal (z-score) [18]: 0.035
- glycan array binding signal (z-score) [19]: 0.028
- glycan array binding signal (z-score) [20]: -0.443
- glycan array binding signal (z-score) [21]: -0.266
- glycan array binding signal (z-score) [22]: -0.157
- glycan array binding signal (z-score) [23]: -0.514
